Drawing on the supplement of paper PMC12230231, this text covers enrichment for 12 sequences.

± gives the standard deviation of the averaged measurements. Restriction of a single-cycle SIVsab GFP reporter by TRIM5α v1-loop variants in CRFK cells. Human variants: read share among cells still uninfected after two challenges over input, higher = gained restriction. Rhesus variants: share among infected cells over input, higher = lost restriction. Reporter dose not given per row. No active / inactive call per row; the paper calls a change when both replicates lie above its controls (mean + 2 SD of stop or wild-type variants, or the top frameshift score). Residues outside the varied loop are taken from Swiss-Prot. The paper reads the human single-substitution scores as noise; they and the rhesus combinations repeat poorly (rank correlation 0.3 to 0.4), indel scores repeat only for the top variants, rhesus substitutions well (0.9).

The test system of this data set is SIVsab (simian immunodeficiency virus of sabaeus monkeys), single-cycle GFP reporter, in CRFK cells. Description: enrichment among uninfected cells over input (fold); higher = stronger restriction. Conditions: library: insertions and deletions. How it is done: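 Pools of CRFK cells expressing variants of the TRIM5α v1 loop were challenged with the single-cycle reporter, sorted by GFP and sequenced; mean of two replicates.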
As for “MASGILVNVKEEVTCPICLELLTQPLSLDCGHSFCQACLTANHKKSMLDKGESSCPVCRISYQPENIRPNRHVANIVEKLREVKLSPEGQKVDHCARHGEKLLLFCQEDGKVICWLCERSQEHRGHHTFLTEEVAREYQVKLQAALEMLRQKQQEAEELEADIREEKASWKTQIQYDKTNVLADFEQLRDILDWEESNELQNLEKEEEDILKSLTNSETEMVQQTQSLRELISDLEHRLQGSVMELLQGVDGVIKRTENVTLKKPETFPKNQRRVFRAPDLKGMLEVFRELTDVRRYWVDVTVAPNNISCAVISEDKRQVSSPKPQIIYGARGTRYQTFVNFVNFNYCTGILGSQSITSGKHYWEVDVSKKTAWILGVCAGFQPDAMCNIEKNENYQPKYGYWVIGLEEGVKCSAFQDSSFHTPSVPFIVPLSVIICPDRVGVFLDYEACTVSFFNITNHGFLIYKFSHCSFSQPVFPYLNPRKCGVPMTLCSPSS [human TRIM5α, 3-codon duplication at 339]”, the enrichment was determined as 0.572 ± 0.28.

“MASGILVNVKEEVTCPICLELLTQPLSLDCGHSFCQACLTANHKKSMLDKGESSCPVCRISYQPENIRPNRHVANIVEKLREVKLSPEGQKVDHCARHGEKLLLFCQEDGKVICWLCERSQEHRGHHTFLTEEVAREYQVKLQAALEMLRQKQQEAEELEADIREEKASWKTQIQYDKTNVLADFEQLRDILDWEESNELQNLEKEEEDILKSLTNSETEMVQQTQSLRELISDLEHRLQGSVMELLQGVDGVIKRTENVTLKKPETFPKNQRRVFRAPDLKGMLEVFRELTDVRRYWVDVTVAPNNISCAVISEDKRQVSSPKPQIIYGARGTRYQTFVNFVNFNYCTGILGSQSITSGKHYWEVDVSKKTAWILGVCAGFQPDAMCNIEKNENYQPKYGYWVIGLEEGVKCSAFQDSSFHTPSVPFIVPLSVIICPDRVGVFLDYEACTVSFFNITNHGFLIYKFSHCSFSQPVFPYLNPRKCGVPMTLCSPSS [human TRIM5α, 3-codon duplication at 340]” displayed an enrichment of 0.188 ± 0.0045.

In the case of “MASGILVNVKEEVTCPICLELLTQPLSLDCGHSFCQACLTANHKKSMLDKGESSCPVCRISYQPENIRPNRHVANIVEKLREVKLSPEGQKVDHCARHGEKLLLFCQEDGKVICWLCERSQEHRGHHTFLTEEVAREYQVKLQAALEMLRQKQQEAEELEADIREEKASWKTQIQYDKTNVLADFEQLRDILDWEESNELQNLEKEEEDILKSLTNSETEMVQQTQSLRELISDLEHRLQGSVMELLQGVDGVIKRTENVTLKKPETFPKNQRRVFRAPDLKGMLEVFRELTDVRRYWVDVTVAPNNISCAVISEDKRQVSSPKPQIIYGARGTRYQTFVNFYCTGILGSQSITSGKHYWEVDVSKKTAWILGVCAGFQPDAMCNIEKNENYQPKYGYWVIGLEEGVKCSAFQDSSFHTPSVPFIVPLSVIICPDRVGVFLDYEACTVSFFNITNHGFLIYKFSHCSFSQPVFPYLNPRKCGVPMTLCSPSS [human TRIM5α, 1-codon deletion at 343]”, the enrichment came to 0.569 ± 0.06.

Take “MASGILVNVKEEVTCPICLELLTQPLSLDCGHSFCQACLTANHKKSMLDKGESSCPVCRISYQPENIRPNRHVANIVEKLREVKLSPEGQKVDHCARHGEKLLLFCQEDGKVICWLCERSQEHRGHHTFLTEEVAREYQVKLQAALEMLRQKQQEAEELEADIREEKASWKTQIQYDKTNVLADFEQLRDILDWEESNELQNLEKEEEDILKSLTNSETEMVQQTQSLRELISDLEHRLQGSVMELLQGVDGVIKRTENVTLKKPETFPKNQRRVFRAPDLKGMLEVFRELTDVRRYWVDVTVAPNNISCAVISEDKRQVSSPKPQIIYGARGTRYQTFVNFYQTFVNFNYCTGILGSQSITSGKHYWEVDVSKKTAWILGVCAGFQPDAMCNIEKNENYQPKYGYWVIGLEEGVKCSAFQDSSFHTPSVPFIVPLSVIICPDRVGVFLDYEACTVSFFNITNHGFLIYKFSHCSFSQPVFPYLNPRKCGVPMTLCSPSS [human TRIM5α, 7-codon duplication at 336]”: the enrichment was 3.15 ± 2.7.

Turning to “MASGILVNVKEEVTCPICLELLTQPLSLDCGHSFCQACLTANHKKSMLDKGESSCPVCRISYQPENIRPNRHVANIVEKLREVKLSPEGQKVDHCARHGEKLLLFCQEDGKVICWLCERSQEHRGHHTFLTEEVAREYQVKLQAALEMLRQKQQEAEELEADIREEKASWKTQIQYDKTNVLADFEQLRDILDWEESNELQNLEKEEEDILKSLTNSETEMVQQTQSLRELISDLEHRLQGSVMELLQGVDGVIKRTENVTLKKPETFPKNQRRVFRAPDLKGMLEVFRELTDVRRYWVDVTVAPNNISCAVISEDKRQVSSPKPQIIYGARGTRYQTFVNGILGSQSITSGKHYWEVDVSKKTAWILGVCAGFQPDAMCNIEKNENYQPKYGYWVIGLEEGVKCSAFQDSSFHTPSVPFIVPLSVIICPDRVGVFLDYEACTVSFFNITNHGFLIYKFSHCSFSQPVFPYLNPRKCGVPMTLCSPSS [human TRIM5α, 5-codon deletion at 342]”, the enrichment turned out to be 0.711 ± 0.079.

Consider “MASGILVNVKEEVTCPICLELLTQPLSLDCGHSFCQACLTANHKKSMLDKGESSCPVCRISYQPENIRPNRHVANIVEKLREVKLSPEGQKVDHCARHGEKLLLFCQEDGKVICWLCERSQEHRGHHTFLTEEVAREYQVKLQAALEMLRQKQQEAEELEADIREEKASWKTQIQYDKTNVLADFEQLRDILDWEESNELQNLEKEEEDILKSLTNSETEMVQQTQSLRELISDLEHRLQGSVMELLQGVDGVIKRTENVTLKKPETFPKNQRRVFRAPDLKGMLEVFRELTDVRRYWVDVTVAPNNISCAVISEDKRQVSSPKPQIIYGARGTRYQTFVNGSQSITSGKHYWEVDVSKKTAWILGVCAGFQPDAMCNIEKNENYQPKYGYWVIGLEEGVKCSAFQDSSFHTPSVPFIVPLSVIICPDRVGVFLDYEACTVSFFNITNHGFLIYKFSHCSFSQPVFPYLNPRKCGVPMTLCSPSS [human TRIM5α, 8-codon deletion at 342]”, for which the enrichment worked out at 1.41 ± 0.19.

As to “MASGILVNVKEEVTCPICLELLTQPLSLDCGHSFCQACLTANHKKSMLDKGESSCPVCRISYQPENIRPNRHVANIVEKLREVKLSPEGQKVDHCARHGEKLLLFCQEDGKVICWLCERSQEHRGHHTFLTEEVAREYQVKLQAALEMLRQKQQEAEELEADIREEKASWKTQIQYDKTNVLADFEQLRDILDWEESNELQNLEKEEEDILKSLTNSETEMVQQTQSLRELISDLEHRLQGSVMELLQGVDGVIKRTENVTLKKPETFPKNQRRVFRAPDLKGMLEVFRELTDVRRYWVDVTVAPNNISCAVISEDKRQVSSPKPQIIYGARGTRYQTFVNGTRYQTFVNFNYCTGILGSQSITSGKHYWEVDVSKKTAWILGVCAGFQPDAMCNIEKNENYQPKYGYWVIGLEEGVKCSAFQDSSFHTPSVPFIVPLSVIICPDRVGVFLDYEACTVSFFNITNHGFLIYKFSHCSFSQPVFPYLNPRKCGVPMTLCSPSS [human TRIM5α, 9-codon duplication at 333]”, the enrichment was 0.233 ± 0.063.

The sequence “MASGILVNVKEEVTCPICLELLTQPLSLDCGHSFCQACLTANHKKSMLDKGESSCPVCRISYQPENIRPNRHVANIVEKLREVKLSPEGQKVDHCARHGEKLLLFCQEDGKVICWLCERSQEHRGHHTFLTEEVAREYQVKLQAALEMLRQKQQEAEELEADIREEKASWKTQIQYDKTNVLADFEQLRDILDWEESNELQNLEKEEEDILKSLTNSETEMVQQTQSLRELISDLEHRLQGSVMELLQGVDGVIKRTENVTLKKPETFPKNQRRVFRAPDLKGMLEVFRELTDVRRYWVDVTVAPNNISCAVISEDKRQVSSPKPQIIYGARGTRYQTFVNILGSQSITSGKHYWEVDVSKKTAWILGVCAGFQPDAMCNIEKNENYQPKYGYWVIGLEEGVKCSAFQDSSFHTPSVPFIVPLSVIICPDRVGVFLDYEACTVSFFNITNHGFLIYKFSHCSFSQPVFPYLNPRKCGVPMTLCSPSS [human TRIM5α, 6-codon deletion at 342]” returned an enrichment of 2.13 ± 1.6.

In the case of “MASGILVNVKEEVTCPICLELLTQPLSLDCGHSFCQACLTANHKKSMLDKGESSCPVCRISYQPENIRPNRHVANIVEKLREVKLSPEGQKVDHCARHGEKLLLFCQEDGKVICWLCERSQEHRGHHTFLTEEVAREYQVKLQAALEMLRQKQQEAEELEADIREEKASWKTQIQYDKTNVLADFEQLRDILDWEESNELQNLEKEEEDILKSLTNSETEMVQQTQSLRELISDLEHRLQGSVMELLQGVDGVIKRTENVTLKKPETFPKNQRRVFRAPDLKGMLEVFRELTDVRRYWVDVTVAPNNISCAVISEDKRQVSSPKPQIIYGARGTRYQTFVNLGSQSITSGKHYWEVDVSKKTAWILGVCAGFQPDAMCNIEKNENYQPKYGYWVIGLEEGVKCSAFQDSSFHTPSVPFIVPLSVIICPDRVGVFLDYEACTVSFFNITNHGFLIYKFSHCSFSQPVFPYLNPRKCGVPMTLCSPSS [human TRIM5α, 7-codon deletion at 342]”, the enrichment stood at 2.13 ± 1.2.

Consider “MASGILVNVKEEVTCPICLELLTQPLSLDCGHSFCQACLTANHKKSMLDKGESSCPVCRISYQPENIRPNRHVANIVEKLREVKLSPEGQKVDHCARHGEKLLLFCQEDGKVICWLCERSQEHRGHHTFLTEEVAREYQVKLQAALEMLRQKQQEAEELEADIREEKASWKTQIQYDKTNVLADFEQLRDILDWEESNELQNLEKEEEDILKSLTNSETEMVQQTQSLRELISDLEHRLQGSVMELLQGVDGVIKRTENVTLKKPETFPKNQRRVFRAPDLKGMLEVFRELTDVRRYWVDVTVAPNNISCAVISEDKRQVSSPKPQIIYGARGTRYQTFVNNFNYCTGILGSQSITSGKHYWEVDVSKKTAWILGVCAGFQPDAMCNIEKNENYQPKYGYWVIGLEEGVKCSAFQDSSFHTPSVPFIVPLSVIICPDRVGVFLDYEACTVSFFNITNHGFLIYKFSHCSFSQPVFPYLNPRKCGVPMTLCSPSS [human TRIM5α, 1-codon duplication at 341]”, for which the enrichment was 1.02 ± 0.9.

In the case of “MASGILVNVKEEVTCPICLELLTQPLSLDCGHSFCQACLTANHKKSMLDKGESSCPVCRISYQPENIRPNRHVANIVEKLREVKLSPEGQKVDHCARHGEKLLLFCQEDGKVICWLCERSQEHRGHHTFLTEEVAREYQVKLQAALEMLRQKQQEAEELEADIREEKASWKTQIQYDKTNVLADFEQLRDILDWEESNELQNLEKEEEDILKSLTNSETEMVQQTQSLRELISDLEHRLQGSVMELLQGVDGVIKRTENVTLKKPETFPKNQRRVFRAPDLKGMLEVFRELTDVRRYWVDVTVAPNNISCAVISEDKRQVSSPKPQIIYGARGTRYQTFVNNYCTGILGSQSITSGKHYWEVDVSKKTAWILGVCAGFQPDAMCNIEKNENYQPKYGYWVIGLEEGVKCSAFQDSSFHTPSVPFIVPLSVIICPDRVGVFLDYEACTVSFFNITNHGFLIYKFSHCSFSQPVFPYLNPRKCGVPMTLCSPSS [human TRIM5α, 1-codon deletion at 342]”, the enrichment was found to be 0.813 ± 0.37.

For “MASGILVNVKEEVTCPICLELLTQPLSLDCGHSFCQACLTANHKKSMLDKGESSCPVCRISYQPENIRPNRHVANIVEKLREVKLSPEGQKVDHCARHGEKLLLFCQEDGKVICWLCERSQEHRGHHTFLTEEVAREYQVKLQAALEMLRQKQQEAEELEADIREEKASWKTQIQYDKTNVLADFEQLRDILDWEESNELQNLEKEEEDILKSLTNSETEMVQQTQSLRELISDLEHRLQGSVMELLQGVDGVIKRTENVTLKKPETFPKNQRRVFRAPDLKGMLEVFRELTDVRRYWVDVTVAPNNISCAVISEDKRQVSSPKPQIIYGARGTRYQTFVNQTFVNFNYCTGILGSQSITSGKHYWEVDVSKKTAWILGVCAGFQPDAMCNIEKNENYQPKYGYWVIGLEEGVKCSAFQDSSFHTPSVPFIVPLSVIICPDRVGVFLDYEACTVSFFNITNHGFLIYKFSHCSFSQPVFPYLNPRKCGVPMTLCSPSS [human TRIM5α, 5-codon duplication at 337]”, the enrichment amounted to 0.4 ± 0.011.
